# Measurements reported in the supplement of paper PMC8728848.
# This is one part of the list.
# Tests used:
# Experiment in all cases: glycan array binding signal (z-score within array); higher = stronger binding
# Conditions in all cases: glycan notation: IUPAC condensed, linker removed
# [1] = biological target: GlcA3S(b1-3)Gal(b1-4)GlcNAc(b1-2)Man
# How it was run: (§1)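 Arrays were curated from the Consortium for Functional Glycomics database, 3228 in total, and kept only where the protein sequence was available. Binding is expressed as a within-array Z-score. This score was averaged across arrays of the same protein sequence at different concentrations or buffers and across linkers, and negative values can be read as non-binding.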
# [2] = biological target: GlcA3S(b1-3)Gal(b1-4)GlcNAc(b1-3)Gal(b1-4)Glc
# How it was run: as §1
# [3] = biological target: GlcNAc(a1-3)Gal(b1-4)GlcNAc
# How it was run: as §1
# [4] = biological target: GlcNAc(a1-4)Gal(b1-3)GlcNAc
# How it was run: as §1
# [5] = biological target: GlcNAc(a1-4)Gal(b1-4)GalNAc
# How it was run: as §1
# [6] = biological target: GlcNAc(a1-4)Gal(b1-4)GlcNAc
# How it was run: as §1
# [7] = biological target: GlcNAc(a1-4)Gal(b1-4)GlcNAc(b1-3)Gal(b1-4)Glc
# How it was run: as §1
# [8] = biological target: GlcNAc(a1-4)Gal(b1-4)GlcNAc(b1-3)Gal(b1-4)GlcNAc
# How it was run: as §1
# [9] = biological target: GlcNAc(a1-4)Gal(b1-4)GlcNAc(b1-3)Gal(b1-4)GlcNAc(b1-3)Gal(b1-4)GlcNAc
# How it was run: as §1
# [10] = biological target: GlcNAc(a1-4)Gal(b1-4)GlcNAc(b1-3)Gal(b1-4)[Fuc(a1-3)]GlcNAc(b1-3)Gal(b1-4)[Fuc(a1-3)]GlcNAc
# How it was run: as §1
# [11] = biological target: GlcNAc(a1-6)Gal(b1-4)GlcNAc
# How it was run: as §1
# [12] = biological target: GlcNAc(b1-2)Gal(b1-3)GalNAc
# How it was run: as §1
# [13] = biological target: GlcNAc(b1-2)Gal(b1-3)GlcNAc
# How it was run: as §1
# [14] = biological target: GlcNAc(b1-2)Man(a1-3)[GlcNAc(b1-2)Man(a1-6)]Man(b1-4)GlcNAc(b1-4)GlcNAc
# How it was run: as §1
# [15] = biological target: GlcNAc(b1-2)Man(a1-3)[GlcNAc(b1-2)Man(a1-6)]Man(b1-4)GlcNAc(b1-4)[Fuc(a1-6)]GlcNAc
# How it was run: as §1
# [16] = biological target: GlcNAc(b1-2)Man(a1-3)[GlcNAc(b1-4)][GlcNAc(b1-2)Man(a1-6)]Man(b1-4)GlcNAc(b1-4)GlcNAc
# How it was run: as §1
# [17] = biological target: GlcNAc(b1-2)Man(a1-3)[GlcNAc(b1-4)][GlcNAc(b1-2)Man(a1-6)]Man(b1-4)GlcNAc(b1-4)[Fuc(a1-6)]GlcNAc
# How it was run: as §1
# [18] = biological target: GlcNAc(b1-2)[GlcNAc(b1-4)]Man(a1-3)[GlcNAc(b1-2)Man(a1-6)]Man(b1-4)GlcNAc(b1-4)GlcNAc
# How it was run: as §1
# [19] = biological target: GlcNAc(b1-2)[GlcNAc(b1-4)]Man(a1-3)[GlcNAc(b1-4)][GlcNAc(b1-2)Man(a1-6)]Man(b1-4)GlcNAc(b1-4)GlcNAc
# How it was run: as §1
# [20] = biological target: GlcNAc(b1-2)[GlcNAc(b1-4)]Man(a1-3)[GlcNAc(b1-4)][GlcNAc(b1-2)[GlcNAc(b1-6)]Man(a1-6)]Man(b1-4)GlcNAc(b1-4)GlcNAc
# How it was run: as §1
# [21] = biological target: GlcNAc(b1-2)[GlcNAc(b1-4)]Man(a1-3)[GlcNAc(b1-4)][GlcNAc(b1-2)[GlcNAc(b1-6)]Man(a1-6)]Man(b1-4)GlcNAc(b1-4)[Fuc(a1-6)]GlcNAc
# How it was run: as §1
# [22] = biological target: GlcNAc(b1-2)[GlcNAc(b1-6)]Man(a1-6)[GlcNAc(b1-2)Man(a1-3)]Man(b1-4)GlcNAc(b1-4)GlcNAc
# How it was run: as §1
# [23] = biological target: GlcNAc(b1-2)[GlcNAc(b1-6)]Man(a1-6)[GlcNAc(b1-2)Man(a1-3)]Man(b1-4)GlcNAc(b1-4)[Fuc(a1-6)]GlcNAc
# How it was run: as §1
# [24] = biological target: GlcNAc(b1-2)[GlcNAc(b1-6)]Man(a1-6)[GlcNAc(b1-4)][GlcNAc(b1-2)Man(a1-3)]Man(b1-4)GlcNAc(b1-4)GlcNAc
# How it was run: as §1
# [25] = biological target: GlcNAc(b1-3)Fuc
# How it was run: as §1
# [26] = biological target: GlcNAc(b1-3)Gal
# How it was run: as §1
# [27] = biological target: GlcNAc(b1-3)Gal(b1-3)GalNAc
# How it was run: as §1
# [28] = biological target: GlcNAc(b1-3)Gal(b1-4)Glc
# How it was run: as §1
# [29] = biological target: GlcNAc(b1-3)Gal(b1-4)GlcNAc
# How it was run: as §1
# [30] = biological target: GlcNAc(b1-3)Gal(b1-4)GlcNAc(b1-2)Man(a1-3)[GlcNAc(b1-3)Gal(b1-4)GlcNAc(b1-2)Man(a1-6)]Man(b1-4)GlcNAc(b1-4)GlcNAc
# How it was run: as §1
# [31] = biological target: GlcNAc(b1-3)Gal(b1-4)GlcNAc(b1-2)Man(a1-3)[GlcNAc(b1-3)Gal(b1-4)GlcNAc(b1-2)Man(a1-6)]Man(b1-4)GlcNAc(b1-4)[Fuc(a1-6)]GlcNAc
# How it was run: as §1
# [32] = biological target: GlcNAc(b1-3)Gal(b1-4)GlcNAc(b1-2)[GlcNAc(b1-3)Gal(b1-4)GlcNAc(b1-6)]Man(a1-6)[GlcNAc(b1-3)Gal(b1-4)GlcNAc(b1-2)Man(a1-3)]Man(b1-4)GlcNAc(b1-4)GlcNAc
# How it was run: as §1
# [33] = biological target: GlcNAc(b1-3)Gal(b1-4)GlcNAc(b1-3)Gal(b1-4)GlcNAc
# How it was run: as §1
# [34] = biological target: GlcNAc(b1-3)Gal(b1-4)GlcNAc(b1-3)Gal(b1-4)GlcNAc(b1-2)Man(a1-3)[GlcNAc(b1-3)Gal(b1-4)GlcNAc(b1-3)Gal(b1-4)GlcNAc(b1-2)Man(a1-6)]Man(b1-4)GlcNAc(b1-4)GlcNAc
# How it was run: as §1
# [35] = biological target: GlcNAc(b1-3)Gal(b1-4)GlcNAc(b1-3)Gal(b1-4)GlcNAc(b1-2)Man(a1-3)[GlcNAc(b1-3)Gal(b1-4)GlcNAc(b1-3)Gal(b1-4)GlcNAc(b1-2)Man(a1-6)]Man(b1-4)GlcNAc(b1-4)[Fuc(a1-6)]GlcNAc
# How it was run: as §1
# [36] = biological target: GlcNAc(b1-3)Gal(b1-4)GlcNAc(b1-3)Gal(b1-4)GlcNAc(b1-2)[GlcNAc(b1-3)Gal(b1-4)GlcNAc(b1-3)Gal(b1-4)GlcNAc(b1-6)]Man(a1-6)[GlcNAc(b1-3)Gal(b1-4)GlcNAc(b1-3)Gal(b1-4)GlcNAc(b1-2)Man(a1-3)]Man(b1-4)GlcNAc(b1-4)[Fuc(a1-6)]GlcNAc
# How it was run: as §1
# [37] = biological target: GlcNAc(b1-3)Gal(b1-4)GlcNAc(b1-3)Gal(b1-4)GlcNAc(b1-3)Gal(b1-4)GlcNAc(b1-2)Man(a1-3)[GlcNAc(b1-3)Gal(b1-4)GlcNAc(b1-3)Gal(b1-4)GlcNAc(b1-3)Gal(b1-4)GlcNAc(b1-2)Man(a1-6)]Man(b1-4)GlcNAc(b1-4)GlcNAc
# How it was run: as §1
# [38] = biological target: GlcNAc(b1-3)Gal(b1-4)GlcNAc(b1-3)Gal(b1-4)GlcNAc(b1-3)Gal(b1-4)GlcNAc(b1-2)Man(a1-3)[GlcNAc(b1-3)Gal(b1-4)GlcNAc(b1-3)Gal(b1-4)GlcNAc(b1-3)Gal(b1-4)GlcNAc(b1-2)Man(a1-6)]Man(b1-4)GlcNAc(b1-4)[Fuc(a1-6)]GlcNAc
# How it was run: as §1
# [39] = biological target: GlcNAc(b1-3)Gal(b1-4)GlcNAc(b1-3)Gal(b1-4)GlcNAc(b1-3)Gal(b1-4)GlcNAc(b1-2)[GlcNAc(b1-3)Gal(b1-4)GlcNAc(b1-3)Gal(b1-4)GlcNAc(b1-3)Gal(b1-4)GlcNAc(b1-6)]Man(a1-6)[GlcNAc(b1-3)Gal(b1-4)GlcNAc(b1-3)Gal(b1-4)GlcNAc(b1-3)Gal(b1-4)GlcNAc(b1-2)Man(a1-3)]Man(b1-4)GlcNAc(b1-4)[Fuc(a1-6)]GlcNAc
# How it was run: as §1
# [40] = biological target: GlcNAc(b1-3)Gal(b1-4)GlcNAc(b1-3)Gal(b1-4)GlcNAc(b1-3)Gal(b1-4)GlcNAc(b1-3)Gal(b1-4)GlcNAc(b1-2)Man(a1-3)[GlcNAc(b1-3)Gal(b1-4)GlcNAc(b1-3)Gal(b1-4)GlcNAc(b1-3)Gal(b1-4)GlcNAc(b1-3)Gal(b1-4)GlcNAc(b1-2)Man(a1-6)]Man(b1-4)GlcNAc(b1-4)GlcNAc
# How it was run: as §1
# [41] = biological target: GlcNAc(b1-3)Gal(b1-4)GlcNAc(b1-3)Gal(b1-4)GlcNAc(b1-3)Gal(b1-4)GlcNAc(b1-3)Gal(b1-4)GlcNAc(b1-2)Man(a1-3)[GlcNAc(b1-3)Gal(b1-4)GlcNAc(b1-3)Gal(b1-4)GlcNAc(b1-3)Gal(b1-4)GlcNAc(b1-3)Gal(b1-4)GlcNAc(b1-2)Man(a1-6)]Man(b1-4)GlcNAc(b1-4)[Fuc(a1-6)]GlcNAc
# How it was run: as §1
# [42] = biological target: GlcNAc(b1-3)Gal(b1-4)GlcNAc(b1-3)Gal(b1-4)GlcNAc(b1-3)Gal(b1-4)GlcNAc(b1-3)Gal(b1-4)GlcNAc(b1-2)[GlcNAc(b1-3)Gal(b1-4)GlcNAc(b1-3)Gal(b1-4)GlcNAc(b1-3)Gal(b1-4)GlcNAc(b1-3)Gal(b1-4)GlcNAc(b1-6)]Man(a1-6)[GlcNAc(b1-3)Gal(b1-4)GlcNAc(b1-3)Gal(b1-4)GlcNAc(b1-3)Gal(b1-4)GlcNAc(b1-3)Gal(b1-4)GlcNAc(b1-2)Man(a1-3)]Man(b1-4)GlcNAc(b1-4)[Fuc(a1-6)]GlcNAc
# How it was run: as §1
# [43] = biological target: GlcNAc(b1-3)Gal(b1-4)GlcNAc(b1-3)Gal(b1-4)GlcNAc(b1-3)GalNAc
# How it was run: as §1
# [44] = biological target: GlcNAc(b1-3)Gal(b1-4)GlcNAc(b1-3)GalNAc
# How it was run: as §1
# [45] = biological target: GlcNAc(b1-3)Gal(b1-4)GlcNAc(b1-3)[GlcNAc(b1-3)Gal(b1-4)GlcNAc(b1-3)]GalNAc
# How it was run: as §1
binder,measurement,setting,value
"Gal 2 (Homo sapiens), P05162 (protein) MTGELEVKNMDMKPGSTLKITGSIADGTDGFVINLGQGTDKLNLHFNPRFSESTIVCNSLDGSNWGQEQREDHLCFSPGSEVKFTVTFESDKFKVKLPDGHELTFPNRLGHSHLSYLSVRGGFNMSSFKLKE",glycan array binding signal (z-score),[1],0.012
same,glycan array binding signal (z-score),[2],-0.091
same,glycan array binding signal (z-score),[3],0.09
same,glycan array binding signal (z-score),[4],-0.26
same,glycan array binding signal (z-score),[5],-0.255
same,glycan array binding signal (z-score),[6],-0.28
same,glycan array binding signal (z-score),[7],-0.268
same,glycan array binding signal (z-score),[8],-0.28
same,glycan array binding signal (z-score),[9],-0.153
same,glycan array binding signal (z-score),[10],-0.128
same,glycan array binding signal (z-score),[11],-0.293
same,glycan array binding signal (z-score),[12],-0.257
same,glycan array binding signal (z-score),[13],-0.357
same,glycan array binding signal (z-score),[14],-0.269
same,glycan array binding signal (z-score),[15],-0.137
same,glycan array binding signal (z-score),[16],-0.084
same,glycan array binding signal (z-score),[17],-0.132
same,glycan array binding signal (z-score),[18],0.001
same,glycan array binding signal (z-score),[19],-0.259
same,glycan array binding signal (z-score),[20],-0.09
same,glycan array binding signal (z-score),[21],-0.177
same,glycan array binding signal (z-score),[22],-0.045
same,glycan array binding signal (z-score),[23],-0.06
same,glycan array binding signal (z-score),[24],-0.192
same,glycan array binding signal (z-score),[25],-0.228
same,glycan array binding signal (z-score),[26],-0.282
same,glycan array binding signal (z-score),[27],-0.241
same,glycan array binding signal (z-score),[28],-0.274
same,glycan array binding signal (z-score),[29],-0.262
same,glycan array binding signal (z-score),[30],-0.103
same,glycan array binding signal (z-score),[31],0.078
same,glycan array binding signal (z-score),[32],0.227
same,glycan array binding signal (z-score),[33],-0.285
same,glycan array binding signal (z-score),[34],-0.043
same,glycan array binding signal (z-score),[35],-0.128
same,glycan array binding signal (z-score),[36],-0.151
same,glycan array binding signal (z-score),[37],-0.092
same,glycan array binding signal (z-score),[38],-0.093
same,glycan array binding signal (z-score),[39],-0.154
same,glycan array binding signal (z-score),[40],-0.091
same,glycan array binding signal (z-score),[41],0.017
same,glycan array binding signal (z-score),[42],-0.036
same,glycan array binding signal (z-score),[43],-0.103
same,glycan array binding signal (z-score),[44],-0.139
same,glycan array binding signal (z-score),[45],-0.277
